Measurements: the supplement of paper PMC12217912
The list shows a part of the results. The full chains were built here from the parent and the listed change. Values near 0.05 are background.

B1: TEV protease; numbered along this chain (parent)
chain: MGESLFKGPRDYNPISSSICHLTNESDGHTTSLYGIGFGPFIITNKHLFRRNNGTLVVQSLHGVFKVKDTTTLQQHLVDGRDMIIIRMPKDFPPFPQKLKFREPQREERICLVTTNFQTKSMSSMVSDTSCTFPSGDGIFWKHWIQTKDGQCGSPLVSTRDGFIVGIHSASNFTNTNNYFTSVPKNFMELLTNQEAQQWVSGWRLNADSVLWGGHKVFMVKPEEPFQPVKEATQL

Variants of: B1
Test: raw area under fraction-flipped curve 0-4 h after induction (AUC4h, not background-subtracted), DNA-recorder readout of cleavage of the substrate (dimensionless); higher = more cleavage of the substrate by the protease variant
Settings: temperature: 34 °C; time window: 0-4 h after rhamnose induction
Description: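 In vivo DNA recorder in E. coli TOP10(DE3) ΔrhaA at 34 °C. Each TEVp single-site mutant (parent TEVp 0) is paired with a single-site variant of the 7-mer TEVs (canonical ENLYFQ|S). The substrate sits between flexible linkers in a Bxb1-sfGFP-TEVs-SsrA fusion, so cleavage stabilises Bxb1 and speeds flipping of a recombination array, read by NGS. The value is the raw area under the fraction-flipped curve over 0-4 h after rhamnose induction (AUC4h), with ≥20 reads per time point. It is not background-subtracted; inactive controls average about 0.047.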
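Also: Bxb1 expression induced with 0.2% (w/v) L-rhamnose at OD600 near 0.5, cultures sampled hourly, flipped fraction per protease–substrate barcode pair counted by paired-end Illumina sequencing.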

Row | Variant | area with substrate ENLYFQC | area with substrate ENLYFQD | area with substrate ENLYFQG | area with substrate ENLYFQI | area with substrate ENLYFQK | area with substrate ENLYFQL | area with substrate ENLYFQM | area with substrate ENLYFQN | area with substrate ENLYFQP | area with substrate ENLYFQR | area with substrate ENLYFQS | area with substrate ENLYFQV | area with substrate ENLYFQE | area with substrate ENLYFQH | area with substrate ENLYFQQ | area with substrate ENLYFQW | area with substrate ENLYFQY | area with substrate ENLYFQF | area with substrate ENLYFQT
1 | Q118P | 0.114 | 0.106 | 0.0835 | 0.0887 | 0.035 | 0.0552 | 0.102 | 0.0847 | 0.0571 | 0.0574 | 0.109 | 0.0421 | – | – | – | – | – | – | –
2 | V229A | 0.137 | – | – | – | 0.0506 | 0.0527 | 0.0917 | 0.0558 | – | 0.0126 | 0.0991 | – | 0.0535 | 0.0804 | 0.0485 | 0.07 | 0.0755 | – | –
3 | N172G | 0.0707 | 0.0382 | 0.104 | 0.0577 | – | 0.0638 | 0.0444 | – | – | – | 0.0697 | – | – | – | – | – | 0.0558 | 0.0423 | 0.0653
4 | F140T | 0.0515 | 0.0331 | – | – | 0.0636 | – | 0.0493 | 0.0658 | – | – | 0.0611 | 0.0622 | – | – | 0.0883 | – | – | – | –
5 | M125C | 0.121 | – | – | 0.0646 | – | 0.0593 | 0.127 | – | 0.0605 | – | 0.103 | 0.0558 | – | – | 0.076 | 0.0582 | – | – | 0.0656
6 | M125A | 0.15 | – | 0.124 | 0.0697 | 0.0646 | 0.0568 | 0.112 | – | – | 0.0619 | 0.1 | – | – | – | – | 0.052 | 0.0724 | 0.0853 | 0.0486
7 | M125H | 0.141 | – | 0.0873 | 0.063 | 0.0662 | 0.0698 | – | 0.0632 | 0.0501 | 0.0562 | 0.0974 | – | – | 0.0709 | – | 0.0757 | 0.0845 | 0.0982 | 0.0542
8 | S154T | 0.147 | – | – | 0.0618 | – | – | – | – | 0.0807 | 0.0185 | 0.107 | – | – | 0.0708 | – | – | – | 0.0697 | 0.0654
9 | P93T | 0.107 | – | 0.104 | – | 0.0512 | 0.0626 | 0.0852 | – | 0.0668 | 0.056 | 0.099 | – | – | – | – | 0.0701 | – | – | 0.0779
10 | P93V | 0.0944 | 0.0403 | 0.102 | – | 0.0555 | 0.0496 | – | – | – | 0.0518 | 0.104 | – | – | – | – | 0.0599 | – | – | 0.0677
11 | T55A | 0.124 | 0.0733 | 0.129 | – | – | 0.0486 | 0.0766 | 0.0866 | – | 0.0587 | 0.0993 | 0.0658 | – | – | – | 0.082 | – | 0.0508 | –
12 | P228K | 0.125 | 0.101 | – | – | 0.0543 | 0.0461 | 0.0813 | 0.0739 | – | – | 0.107 | 0.0676 | – | – | – | 0.0823 | – | 0.108 | 0.0619
13 | P228M | 0.107 | 0.0706 | – | 0.0049 | – | 0.062 | 0.0706 | 0.0863 | – | 0.0531 | 0.0996 | 0.0658 | 0.0593 | – | – | 0.0732 | – | 0.0757 | –
14 | N177D | 0.0647 | 0.0805 | 0.0903 | 0.0671 | 0.0411 | 0.0579 | – | – | 0.0588 | 0.0525 | 0.0898 | – | – | 0.0724 | 0.0745 | – | – | 0.0712 | 0.0563
15 | T129N | 0.094 | – | 0.107 | 0.0631 | 0.0699 | 0.0644 | 0.0805 | 0.0753 | – | 0.0608 | 0.107 | 0.0696 | – | 0.0901 | – | 0.06 | 0.0728 | 0.104 | –
16 | F6G | 0.115 | 0.0733 | – | – | 0.0733 | 0.0448 | – | – | – | 0.0733 | 0.0977 | – | – | 0.0773 | 0.0689 | – | – | – | –
